Screen size: about 150,000 compounds; about 540 (0.36%) showed an effect of 50% or more. The list shows a part of the results.

What is called % Inhibition is the relative decrease from the control value, in per cent.

The test concerns Plasmodium falciparum. Put plainly: Primary screen in NF54 nanoGlo assay, in single point, at 2uM, 72h; a lower Z score goes with more inhibition. The test is classed as functional, Erythrocyte. Conditions: timepoint 72 hour.
Regarding `Cc1cc(C(=O)N2CC(n3cc(CO)nn3)C2)nn1C`, the “% Inhibition” value was -4% and the Z score is 0.75.
The corresponding values for `Cc1nc(NCCc2csc(C(C)C)n2)cc(C2CC(O)C2)n1` (stereo unspecified) are -8% and 1.46.
The corresponding values for `C=CCOc1cccc2c1cc(C(=O)N1CCN(c3ccccc3F)CC1)n2Cc1cccc(Cl)c1` are -1% and 0.13.
The corresponding values for `CCCN(CCC)S(=O)(=O)N1CCC[C@H]1C(N)=O` are -1% and 0.25.
As to `Cc1nccn1C[C@H]1CCCN(C(=O)[C@H]2CC[C@@H](O)CC2)C1`, the “% Inhibition” value was determined as 3% and the Z score was -0.43.
The matching figures for `CCc1nc2c(NS(=O)(=O)c3cnn(CC)c3)cccn2n1`: 0% and 0.
The corresponding values for `Cc1ccsc1CN(C)C(=O)c1ccc(-c2nc(N(C)C)ns2)cc1` are -17% and 2.67.
The corresponding values for `Cn1nc(-c2ccc(F)cc2)cc1C(=O)NCCn1nc(-c2ccccn2)c2c1CCCC2` are -3% and 0.53.
On to `COc1cccc(Cc2nc(-c3cccc(NC(=O)Nc4ccc(F)cc4)c3)no2)c1`, for which the “% Inhibition” value is -3% and the Z score is 0.28.
The matching figures for `O=C(NCc1nc2ccccc2s1)c1nc[nH]n1`: -11% and 1.4.
The corresponding values for `CCNC(=O)Nc1ccccc1C(F)(F)F` are -2% and 0.26.
The matching figures for `CN(Cc1cccnc1)C[C@H]1CCCN(c2ncnc3nc[nH]c23)C1`: 4% and -0.82.
Take `CCCC(=O)NCc1ccc(C(=O)O)c(OC)c1`: the “% Inhibition” value was 0% and the Z score is 0.03.
The corresponding values for `C=CC[C@]1(CO)CCCN(CC(C)(C)N2CCOCC2)C1` are -3% and 0.43.
The matching figures for `COc1ccc(CNC(=O)CN2CCC[C@H]2c2nc3ccccc3s2)cc1OC`: -7% and 1.31.
Take `Cc1noc([C@@H]2CCCO[C@H]2C2CCN(CCCC(C)(C)C)CC2)n1`: the “% Inhibition” value is recorded as 15% and the Z score is reported as -1.91.
As for `COc1cn(CC(=O)NC2CCCC2)c(CN2CCCCC2)cc1=O`, the “% Inhibition” value was found to be 0% and the Z score was 0.05.
`COc1ccc(OCC(=O)Nc2ccc3c(c2)nc(CN2CCN(C)CC2)n3C(C)C)cc1`: the “% Inhibition” value is listed as -14% and the Z score turned out to be 1.2.
The matching figures for `CCOC(=O)c1cc2n(n1)C[C@@](C)(C(=O)NC1CCCCC1)N(c1ccc(F)cc1F)C2=O`: 8% and -0.91.
The corresponding values for `CCC1(N2CCOCC2)CCN(c2ncc(C(F)(F)F)s2)CC1` are 12% and -1.55.
The matching figures for `COCc1nc(-c2cccc(N3CCNC3=O)c2)n(CCO)n1`: -7% and 1.15.
As to `CC(C)c1cc([C@@H]2CCCN2S(=O)(=O)c2ccc(C3CCCCC3)cc2)on1`, the “% Inhibition” value is recorded as -19% and the Z score stood at 2.5.
The corresponding values for `CC(C)c1nn(-c2ccccc2)c(Oc2ccccc2F)c1CN(C[C@H]1CCCO1)C(=O)c1cccc(F)c1` are -13% and 1.92.
Take `Cc1ccc(C)c(Cn2c(C)c(CNC3CCCC3)c(C(=O)O)c2C)c1`: the “% Inhibition” value is recorded as -19% and the Z score came out at 3.53.
The corresponding values for `COc1c(C(=O)Nc2ccc(C)cc2)oc2ccc(NC(=O)c3n[nH]c4ccccc34)cc12` are 15% and -1.75.
The matching figures for `CCn1c(CN(Cc2ccncc2)CC2CCN(CCOC)CC2)nc2ccccc21`: -15% and 2.7.
The corresponding values for `COc1ccc(-c2noc(-c3ccc(S(=O)(=O)N4CCCCCC4)o3)n2)cc1` are 3% and -0.54.
Turning to `COc1cccn(CCCn2ccnc2C)c1=O`, the “% Inhibition” value is on record as -2% and the Z score came to 0.35.
The corresponding values for `O=c1ccncn1CC1CCN(c2ncnc3c2CCCC3)CC1` are -16% and 2.33.
The corresponding values for `CC(C)n1cc(-c2nc(CC(N)=O)nn2CCO)cn1` are 17% and -2.18.
The corresponding values for `COc1ccc(C(O)(c2ccc(OC)cc2)c2ccc(CN(Cc3ccc4c(c3)OCO4)Cc3ccco3)o2)cc1` are 1% and -0.18.
For `Cc1cccc(-c2noc([C@@H]3Cc4[nH]cnc4CN3C(=O)c3ccccc3C(=O)O)n2)c1`, the “% Inhibition” value is given as -13% and the Z score came out at 2.04.
The matching figures for `NC(=NCc1ccc(C2CC2)cc1)N1CCOCC1`: 1% and -0.06.
The corresponding values for `CC(C)[C@H](C)N(C(=O)c1cc(C(C)(C)C)n[nH]1)C1CC1` are -10% and 1.49.
For `O=S(=O)(Nc1ncccn1)c1cnc2n1CCC2`, the “% Inhibition” value was -9% and the Z score worked out at 1.12.
The matching figures for `COc1ccccc1OC1(C(=O)O)CCN(CC2CCCC2)CC1`: -8% and 1.16.
The matching figures for `CS(=O)(=O)c1ccccc1CC(=O)Nc1nccc2sccc12`: -6% and 1.2.
The matching figures for `C[C@H](NC(=O)c1cc2c(s1)CCCC2)c1ccccn1`: 3% and -0.51.
For `CCC(=O)Nc1cc(-c2cc3ccccc3n2CC)n[nH]1`, the “% Inhibition” value was -14% and the Z score amounted to 1.66.
With `Cc1c(C(=O)NCc2cccnc2)c(C(F)(F)F)nn1C(C)C`, the “% Inhibition” value is -1% and the Z score is reported as 0.19.
The corresponding values for `CC[C@H]1CN(CCC(=O)N2CCc3[nH]ncc3C2)Cc2cc(OC)ccc2O1` are 0% and 0.02.
The corresponding values for `O=C1CC[C@@H](C(=O)NC(C2CC2)C2CC2)N1` are 32% and -3.63.
The corresponding values for `CCn1c(CN2CCC[C@H]2C(=O)O)nc2c(F)cccc21` are -5% and 0.58.
For the compound `COCCc1nc(-c2ccccc2-n2cccn2)n(CC(C)(C)O)n1`, the “% Inhibition” value is listed as -14% and the Z score was 2.41.
The corresponding values for `CCCN1CCC(NCc2ccc3c(c2)OCO3)CC1` are 1% and -0.14.
The matching figures for `Cc1ccc2c(Nc3cccc(OC(F)(F)F)c3)c(C(=O)N3CCC[C@H](C)C3)cnc2n1`: -15% and 2.31.
For `Cc1nccc(N2CCC[C@@]3(CCC(=O)N(Cc4ccccn4)C3)C2)n1`, the “% Inhibition” value is reported as -1% and the Z score was 0.1.
The corresponding values for `Cc1ccc(-c2cn(-c3ccc(C)cc3)c(NC(=O)CN(CC3CC3)C(=O)c3ccc(F)cc3)n2)cc1` are 8% and -0.92.
As to `Cc1ccc(CN2CCN(Cc3c(C)nn(-c4ccc(F)cc4)c3C)C[C@@H]2CCO)o1`, the “% Inhibition” value is given as 2% and the Z score is listed as -0.25.
As for `CN(C(=O)Cc1cccs1)C1CCCCC1O` (stereo unspecified), the “% Inhibition” value was 6% and the Z score is listed as -0.84.
The matching figures for `COC(C)(C)c1noc(CNC(=O)C(C)(C)C)n1`: -10% and 1.47.
The corresponding values for `CCOc1ccc(S(=O)(=O)Nc2ccc3c(c2)C(=O)N(C)c2ccccc2O3)cc1F` are 7% and -0.76.
The matching figures for `CC(=O)Nc1ccc(NS(=O)(=O)c2cccc(-n3cnnn3)c2)c(Cl)c1`: 0% and -0.01.
On to `CS(=O)(=O)N1CCC(Cc2ccc(C(=O)NC3CCC3)cc2)CC1`, for which the “% Inhibition” value is -18% and the Z score turned out to be 2.2.
The matching figures for `CCOC(=O)N1CCC(N(C)[C@H]2CCCN(CCCc3ccccc3)C2)CC1`: -4% and 0.46.
The matching figures for `CO[C@@]1(C)C[C@@H](O)C12CCN(C(=O)COc1ccc(C)c(C)c1)CC2`: -12% and 1.78.
The corresponding values for `Cc1cccc(NC(=O)N2CCC(c3nc4ccccc4s3)CC2)c1` are -7% and 1.04.
Consider `COC(=O)CC[C@H]1NC(=O)N(c2ccc(-c3nccs3)cc2)C1=O`, for which the “% Inhibition” value is on record as -7% and the Z score turned out to be 1.03.
The matching figures for `CCOC1(C(=O)NC[C@@]2(COC)OCCc3ccccc32)CCCC1`: -1% and 0.18.
With `CO[C@H]1CN(C(=O)c2ccc(-c3cn(-c4ccccc4)cn3)cc2)CC[C@H]1N`, the “% Inhibition” value is recorded as 15% and the Z score is -2.03.
Regarding `COc1ccc(-c2nnc(COc3ccc4ccccc4c3)o2)cc1OC`, the “% Inhibition” value was -3% and the Z score was determined as 0.41.
The corresponding values for `Cc1c(NC(=O)C2CC(C)(O)C2)cnn1CCC(C)C` (stereo unspecified) are 10% and -0.97.
The corresponding values for `Cc1noc2ncnc(NCCCN(C)Cc3ccccc3)c12` are 0% and 0.05.
In the case of `O=C(c1cc(F)c(Cl)cc1F)N1CCN[C@H](c2cccnc2)C1`, the “% Inhibition” value is reported as -14% and the Z score is 1.33.
Take `Cc1ccc(OCC[C@H]2CCN(C(=O)CC3CCCC3)C2)cc1`: the “% Inhibition” value is on record as -11% and the Z score is reported as 2.12.
Turning to `COc1ccc(OC)c(CNC(=O)C[C@H]2c3ncccc3C(=O)N2c2ccc(C)cc2)c1`, the “% Inhibition” value was -3% and the Z score was determined as 0.48.
As to `CC(C)(C)OC(=O)N1C[C@H](C(=O)O)C[C@H](c2ccccc2)C1`, the “% Inhibition” value was determined as 5% and the Z score is reported as -0.81.
The corresponding values for `O=C(N[C@H]1C[C@H](c2cc(=O)[nH]cn2)C1)c1ccc2c(c1)OCO2` are -15% and 1.98.
For `CN(Cc1cnnn1C)c1ccccc1F`, the “% Inhibition” value is given as -7% and the Z score is on record as 0.87.
The corresponding values for `COc1ccc2c(c1)OC(C)(C)CN(C(=O)Nc1cnc(C)nc1)C2` are 0% and -0.03.
The corresponding values for `COCCN1CC2(CCC1=O)CCN(C(=O)CCn1cc(C)cn1)CC2` are 3% and -0.36.
As to `COc1cc(N2CC[C@H]3[C@H](CCC(=O)N3CCc3cccs3)C2)ncn1`, the “% Inhibition” value is recorded as 9% and the Z score was -1.22.
The corresponding values for `CCC=C(C)C(=O)N1CCC(CC(N)=O)CC1` are -10% and 0.93.
The matching figures for `Cc1c[nH]c(CN2CCC[C@@](C#N)(c3ccccn3)C2)n1`: -3% and 0.53.
The corresponding values for `Cn1ccnc1[C@H]1N(S(=O)(=O)c2cccc(N)c2)CC1(C)C` are -5% and 0.54.
As to `Cc1onc(-c2ccccc2Cl)c1C(=O)N1CC(c2nc(-c3ccncc3)no2)C1`, the “% Inhibition” value is given as -10% and the Z score worked out at 1.51.
For `CCC(=O)Nc1ccc(N2CCCN(C(=O)C3CCCC3)CC2)c(C(=O)NCc2ccc(F)cc2)c1`, the “% Inhibition” value is -14% and the Z score worked out at 1.45.
The corresponding values for `O=C(NCc1ccc2c(c1)OCO2)C1CN(C(=O)C2CCCC2)CC1c1cccc(C(F)(F)F)c1` (stereo unspecified) are -9% and 1.05.
For the compound `O=C1NCC2(CCN(C(=O)CO[C@H](c3ccccc3)C(F)(F)F)CC2)O1`, the “% Inhibition” value is -9% and the Z score was 1.73.
The matching figures for `CC(C)=CC[C@]1(C(=O)O)CCCN(Cc2cccnc2N)C1`: -4% and 0.52.
The matching figures for `O=C(Nc1nnc(C(F)F)s1)c1ccccn1`: -18% and 1.48.
The corresponding values for `COc1ccc(Br)c(C(=O)N2CC[C@H](N3C(=O)COC3=O)C2)c1` are -17% and 1.92.
As for `O=C(c1ccco1)N1CCN(c2nc(N3CCOCC3)nc(-n3ccnc3)n2)CC1`, the “% Inhibition” value is 6% and the Z score is reported as -0.81.

Source of the values: ChEMBL document CHEMBL4888484, “Replenishing the malaria drug discovery pipeline: Screening and hit evaluation of the MMV Hit Generation Library 1 (HGL1) against asexual blood stage Plasmodium falciparum ,using a nano luciferase reporter read-out” (2022).
